Where “and” joins values, the source holds several entries; their conditions need not be identical. Equal values may be shown once. Among all 340,000 compounds or so, about 6,900 (2%) were called active. Rule as the data show it: active = inhibition above about 30%; inactive = below that, where a call was filed. The list shows a part of the results, in another mix than the full data. Entries without a call were filed so in the source.
The compounds below were run against D(2) dopamine receptor (Homo sapiens) (UniProt P14416) (assay: HTS Assay for Allosteric Antagonists of the Human D2 Dopamine Receptor: Primary Screen for Antagonists). Conditions: HEK293 TREx D2 cells, calcium flux, dopamine EC80; at 10 µM; stronger effect = higher value.
UniProt P14416, sequence (P14416 whole entry, looked up): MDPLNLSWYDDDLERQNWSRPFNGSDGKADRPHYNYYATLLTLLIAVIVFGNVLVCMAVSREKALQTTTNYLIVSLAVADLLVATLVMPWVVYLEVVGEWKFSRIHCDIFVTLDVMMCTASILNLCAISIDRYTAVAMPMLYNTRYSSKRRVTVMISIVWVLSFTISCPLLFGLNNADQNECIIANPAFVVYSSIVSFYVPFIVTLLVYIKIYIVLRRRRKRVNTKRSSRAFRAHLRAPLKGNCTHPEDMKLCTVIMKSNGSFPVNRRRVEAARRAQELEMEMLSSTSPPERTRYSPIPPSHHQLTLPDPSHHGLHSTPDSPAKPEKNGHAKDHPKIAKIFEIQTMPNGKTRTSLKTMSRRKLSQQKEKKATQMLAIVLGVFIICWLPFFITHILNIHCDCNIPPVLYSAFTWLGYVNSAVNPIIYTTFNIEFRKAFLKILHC
From the text: NIH Chemical Genomics Center [NCGC] NIH Molecular Libraries Probe Centers Network [MLPCN] MLPCN Grant: NS064831-01 Assay Submitter (PI): David Sibley Dopamine receptors (DARs) are involved in the etiology and/or therapy of a number of neuropsychiatric and endocrine disorders. For instance, all receptor-based antiparkinsonian drugs work via stimulating the D2 DAR subtype whereas all FDA-approved antipsychotic agents are antagonists of this receptor. […] There are three different types of allosteric modulators that we are seeking, two of which will stimulate or augment receptor signaling, allosteric agonists and potentiators, while the third, allosteric antagonists, will attenuate receptor signaling. The present primary screening assay measures compound antagonism after an EC80 addition of dopamine by tracking calcium flux in a […], inducible Hek293 Trex D2 cell line.
Freshly passaged cells are plated in 1536 well black, clear bottom plates at a density of 4000 cells/well in 3 ul of complete media containing 1x tetracycline inducer. After an overnight incubation at 30 C in 5% CO2, cells are loaded with 2 ul of the no wash Calcium Assay Kit (ABD Bioquest) and incubated at room temperature for 30 to 90 minutes. Agonist read: A 10 cycle (1 second/cycle) baseline measurement is taken and then the FDSS online 1536 pintool delivers 23 nl of compound library (as well as dopamine controls) to the plate. The plate is measured for kinetically at 1 cycle/sec for 180 seconds. Following the 180 second read, 1 ul of an EC80 (negative modulation assay) is delivered by an onboard pipette head. Measurements are taken kinetically for an additional 180 seconds.
Compound CCOc1ccc(OCC)c(Nc2cc(C)nc3nc(-c4ccco4)nn23)c1 has an inhibition of -1.37%. With CCOC(=O)C1=C(COC(=O)COc2ccc(Br)cc2)NC(=O)NC1C (configuration not stated) the inhibition was active: 82.5%. With CC(=O)N1c2ccc(S(=O)(=O)N3CCCCCC3)cc2CC1C(=O)NCc1ccccc1F (configuration not stated) the inhibition was -4.82%. In the case of O=C(CSc1n[nH]c(-c2ccco2)n1)Nc1ccccc1Cl, the inhibition is reported as active: 30.3%. CCOc1ccc(CCNC(=O)CN2C(=O)c3cccnc3Oc3ccc(Cl)cc32)cc1 showed an inhibition of 14.3%. For CCOc1ccc(CCNC(=O)Cn2nnc(-c3ccc(C(F)(F)F)cc3)n2)cc1OCC, the inhibition was 5.14%. CC(=O)Nc1nnc(SCc2cc(=O)c3cccc(Cl)c3[nH]2)s1 gave an inhibition of -24%. Cn1cc(CCCC(=O)NCc2ccccc2Cl)c2ccccc21 showed an inhibition of 18.1%. CS(=O)(=O)N1CCCC(C(=O)NCCCN2CCC(Cc3ccccc3)CC2)C1 (configuration not stated) was tested, and the inhibition was active: 46.3%. For CCOc1cc(C(=O)NCCc2csc(-c3ccc(C)cc3)n2)cc(OCC)c1OCC, the inhibition was 1.66%. CN(C(=O)c1cc2c(=O)n3ccccc3nc2n1C)c1ccccc1 gave an inhibition of -17.1%. In the case of COc1ccc(CCNC(=O)CCn2c(=O)c3cccn3c3cccnc32)c(OC)c1OC, the inhibition is reported as -0.834%. Cc1cccc(NC(=O)N2CCC(n3c(C)nc4cccnc43)CC2)c1 showed an inhibition of -4.94%. With O=C(CSc1nccn1Cc1ccccc1)Nc1ccc2c(c1)OCO2 the inhibition was 4.23%. Compound CCOC(=O)N1CCC(NC(=O)c2ccc3c(c2)N(Cc2cc(C)ccc2C)C(=O)c2ccccc2S3=O)CC1 (configuration not stated) has an inhibition of 11%. CN1C(=O)C2(c3ccccc31)N(c1ccc(F)c(Cl)c1)C(=O)CS2(=O)=O (configuration not stated) showed an inhibition of 7.7%. In the case of Cc1cc(C)c2c(n1)nn1c(C)c(CCC(=O)NCc3ccc(Cl)cc3)c(C)nc21, the inhibition is reported as 1.57%. Compound COC(=O)c1cc(S(=O)(=O)NCC2CCN(Cc3ccccc3F)CC2)c[nH]1 has an inhibition of 6.6%. In the case of O=C(Nc1cc(F)ccc1F)c1cc2nc(-c3ccco3)cc(C(F)(F)Cl)n2n1, the inhibition is reported as -5.81%. For CCOc1ccc(-c2cn3c(n2)sc2cc(C(=O)NCCc4ccc(OC)c(OC)c4)ccc23)cc1, the inhibition was 10.8%. With CCC(=O)N1CCc2cc(S(=O)(=O)CCC(=O)N3CCN(c4ccc(C(C)=O)cc4)CC3)ccc21 the inhibition was 11.3%. For COC(=O)c1ccc(NC(=O)c2cn(-c3ccccc3)nc2-c2ccncc2)cc1, the inhibition was active: 91.4%. O=C(CCn1nc(-c2ccc(Cl)cc2)c2ccccc2c1=O)Nc1ccc(OC(F)(F)F)cc1 showed an inhibition of 14.3%. O=C(Nc1ccc(F)cc1Cl)C1Cc2ccccc2N1C(=O)c1ccccc1 (configuration not stated) was tested, and the inhibition was 8.66%. CC(=O)c1cccc(NC(=O)c2nc3ccccc3nc2N2CCCCC2)c1 gave an inhibition of 21.5%. With Cc1ccc(Cl)cc1N1CCN(C(=O)C2CCN(S(=O)(=O)c3ccc4c(c3)oc(=O)n4C)CC2)CC1 the inhibition was -9.12%. In the case of CCOC(=O)C1(Cc2ccccc2C)CCCN(C(=O)c2cc(C3CC3)[nH]n2)C1 (configuration not stated), the inhibition is reported as active: 31.7%. In the case of COc1ccc(OC)c(CNC(=O)C2CCN(c3ncnc4c3nc3n4CCCCC3)CC2)c1, the inhibition is reported as 4.05%. In the case of COC(=O)c1c(N)n(-c2ccc(OC)c(Cl)c2)c2nc3ccccc3nc12, the inhibition is reported as -8.46%. COc1ccc(-c2nnc3c4ccccc4c(-c4ccccc4)nn23)cc1 was tested, and the inhibition was 7.18%. With CCOc1ccc(CCNC(=O)c2cccc(-n3c(C)nc4cccnc43)c2)cc1 the inhibition was 4.24%. For FC(F)(F)c1nc(-c2ccncc2)ncc1-c1nnnn1-c1ccccc1, the inhibition was active: 58.4%. Compound O=C(Nc1ccccc1F)c1ccc(-c2ccccc2)s1 has an inhibition of 8.94%. CCN(CC)C(=O)c1sc2c(c1C)c(=O)n(-c1ccc(Cl)c(Cl)c1)c(=O)n2CC(=O)Nc1cccc(OC)c1 gave an inhibition of -10.6%. In the case of CCOC(=O)c1nnn(CC(=O)NC(=O)Nc2cccc(CC)c2)c1C(=O)OCC, the inhibition is reported as -2.9%. O=C(COc1ccc(Cl)cc1)NCCc1csc(-c2ccc(F)cc2)n1 showed an inhibition of -3.6%. COc1ccc(NC(=O)C2CCCN(S(=O)(=O)c3cccs3)C2)cc1 (configuration not stated) was tested, and the inhibition was 6.81%. CCC1CCCCN1CCCNC(=O)c1cc2c(=O)n(CC)c3ccccc3c2s1 (configuration not stated) showed an inhibition of -5.68%. In the case of NC(N)=NCCCC(NC(=O)c1ccccc1)C(=O)Nc1ccc([N+](=O)[O-])cc1 (configuration not stated), the inhibition is reported as active: 75.2%. CCN1CCN(C(c2ccccc2)c2c(O)cc(C)n(Cc3ccco3)c2=O)CC1 (configuration not stated) showed an inhibition of 7.92%. With COc1ccc(CNC(=O)C2CCN(S(=O)(=O)c3ccc(C)cc3)CC2)cc1 the inhibition was 22.7%. N#C/C(=C/c1ccc(Cl)cc1Cl)c1nc2ccccc2c(=O)[nH]1 was tested, and the inhibition was 4.5%. For CCCCCNC(=O)c1ccc2c(c1)nc(C)n2-c1cccc(C)c1, the inhibition was 20.3%. With O=C(CCn1c(=O)c2cccn2c2ccccc21)Nc1ccc(F)cc1 the inhibition was -13.6% and active: 61.4%. Compound O=C(NCc1cccs1)c1ccc(CSc2nc3cccnc3n2Cc2ccccc2)cc1 has an inhibition of -0.115%. Work on O=C1C2=C(Nc3ccccc3SC2c2ccccc2C(F)(F)F)c2ccccc21 (configuration not stated) yielded an inhibition of -15.3%. With Cc1ccc(C)c(NC(=O)Cn2c(=O)ccc3cc(S(=O)(=O)N4CCCC4)ccc32)c1 the inhibition was 0.194%.
Also: 0% is about no effect.
